These are literature values, as cited in article PMC11006913.

What all share (conditions): PBM; conditions not shown; double strand, one strand shown; scale: upbm affinity estimate (log intensity, higher = more binding, comparable within an allelic series)
Data set [1] has as its target NKX2-5 K183E (Homo sapiens) (UniProt P52952).
Data set [2] addresses NKX2-5 R161P (Homo sapiens) (UniProt P52952).
The target in data set [3] is NKX2-5 R190C (Homo sapiens) (UniProt P52952).
For data set [4], the target named is PITX2 R108H (Homo sapiens) (UniProt Q99697).
The target in data set [5] is PITX2 R130W (Homo sapiens) (UniProt Q99697).
Data set [6] addresses PITX2 T114P (Homo sapiens) (UniProt Q99697).
In data set [7] the target is PITX2 L100Q (Homo sapiens) (UniProt Q99697).

The other results are listed elsewhere or left out.

With GTAATTAC [8-mer GTAATTAC], the binding signal in data set [1] is 11.5; in data set [2] it was 12.1; in data set [3] it was 11.4.

Consider CAATTAGC [8-mer CAATTAGC], for which the values for the binding signal in data set [4], in data set [5] and in data set [6] were 8.6, 8.59 and 8.67, respectively.

Take AATTAATC [8-mer AATTAATC]: the binding signal is 11.3 in data set [7], 9.6 in data set [4], 8.72 in data set [5] and 9.91 in data set [6].

Turning to ACCAATTA [8-mer ACCAATTA], the binding signal in data set [1] was 11.5.

On to ATAATTGG [8-mer ATAATTGG], for which, in data set [1], the binding signal is 11.4.

Take CGACCTCG [8-mer CGACCTCG]: the binding signal was 10.2 in data set [1], 10.3 in data set [2] and 10.2 in data set [3].

For CCGCGTCG [8-mer CCGCGTCG], the binding signal is 8.18 in data set [7], 8.06 in data set [4], 8.01 in data set [5] and 8.1 in data set [6].

As to GCTCGGCC [8-mer GCTCGGCC], the binding signal in data set [7] was 8.11; in data set [4], 7.92; in data set [5] it was 7.85; in data set [6] it was 7.95.

For ATTAATCA [8-mer ATTAATCA], the binding signal in data set [7] was 10.8; in data set [4], 9.27; in data set [5], 8.79; in data set [6], 9.46.

As for CTTGGGCC [8-mer CTTGGGCC], the binding signal is 10.1 in data set [1], 10.3 in data set [2] and 9.99 in data set [3].

Consider ATTAACGG [8-mer ATTAACGG], for which the binding signal in data set [7] was 10; in data set [4], 8.85; in data set [5], 8.63.
